Assay results from paper PMC3897701.
These are yes or no findings as the source states them, for the method shown. Some results given as binding are weak or reduced against the parent protein; the word gives no strength. For part of these data: Tags and fused reporters may be left off the sequences shown.

Protein sequences, listed by entry. Tags and fused reporters are not part of them. Residues count along the entry.
UniProt P41274, residues 104-309: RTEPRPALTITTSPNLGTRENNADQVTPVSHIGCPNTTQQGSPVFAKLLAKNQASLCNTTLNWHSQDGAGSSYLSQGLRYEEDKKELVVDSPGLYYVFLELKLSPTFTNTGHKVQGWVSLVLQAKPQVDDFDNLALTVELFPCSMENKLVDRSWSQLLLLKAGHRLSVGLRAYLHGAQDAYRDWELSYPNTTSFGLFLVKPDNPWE
UniProt P41273, residues 50-254: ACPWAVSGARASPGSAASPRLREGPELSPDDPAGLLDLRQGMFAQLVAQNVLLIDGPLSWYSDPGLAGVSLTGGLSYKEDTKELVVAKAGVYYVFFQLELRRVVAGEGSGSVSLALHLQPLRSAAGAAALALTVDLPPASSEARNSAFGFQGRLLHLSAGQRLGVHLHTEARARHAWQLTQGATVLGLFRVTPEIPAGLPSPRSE

Key:
[1] = molecular target: mCD137L-mFc (mouse CD137L extracellular domain with mouse IgG-Fc fusion protein) (mouse) (UniProt P41274); assay: ELISA; purified mCD137L-mFc coated at 1 µg/ml; purified mE, mE2, mE3, mE4 added at 0.1 to 10 µg/ml; goat anti-human IgG-HRP; both purified
[2] = molecular target: mCD137L-mFc (mouse CD137L extracellular domain with mouse IgG-Fc fusion protein) (mouse) (UniProt P41274); assay: ELISA; blocking: mCD137-hFc (1 µg/ml) mixed with rat anti-mouse CD137 mAbs (5 or 25 µg/ml), added to mCD137L-mFc coated plates (1 µg/ml); mouse anti-human-Fc-HRP; both purified
[3] = molecular target: hCD137L-mFc (human CD137L extracellular domain and mouse IgG-Fc fusion protein) (human) (UniProt P41273); assay: ELISA; purified hCD137L-mFc coated at 1 µg/ml; expression supernatants of human or mouse CD137-hFc fragments added; goat anti-human IgG-HRP; positive if P/N>2.1; only the target purified
[4] = molecular target: mCD137L-mFc (mouse CD137L extracellular domain with mouse IgG-Fc fusion protein) (mouse) (UniProt P41274); assay: ELISA; purified mCD137L-mFc coated at 1 µg/ml, blocked with 5% milk; expression supernatants of CD137-hFc fragments added 2 h at 37°C; goat anti-human IgG-HRP; positive if P/N>2.1; only the target purified

B1: mouse CD137 extracellular domain with hFc tail (mE-hFc) (Fc fusion, UniProt P20334 24-185)
chain: VQNSCDNCQPGTFCRKYNPVCKSCPPSTFSSIGGQPNCNICRVCAGYFRFKKFCSSTHNAECECIEGFHCLGPQCTRCEKDCRPGQELTKQGCKTCSLGTFNDQNGTGVCRPWTNCSLDGRSVLKTGTTEKDVVCGPPVVSFSPSTTISVTPEGGPGGHSLQ
Q: With B1 as the binder, how does the binding [1] read?
A: binds

Q: What about the binding [2] of the same binder?
A: binds

Q: And the binding [3]?
A: binds

Q: What about the binding [4] of the same binder?
A: binds

B2: mE3 (mouse CD137 CRDI+II, human IgG-Fc fusion protein) (Fc fusion, UniProt P20334 24-85)
chain: VQNSCDNCQPGTFCRKYNPVCKSCPPSTFSSIGGQPNCNICRVCAGYFRFKKFCSSTHNAEC
Q: With B2 as the binder, how does the binding [1] read?
A: binds

Q: What about the binding [3] of the same binder?
A: binds

Q: And the binding [4]?
A: binds

B3: mE4 (mouse CD137 CRDI+II+III, human IgG-Fc fusion protein) (Fc fusion, UniProt P20334 24-117)
chain: VQNSCDNCQPGTFCRKYNPVCKSCPPSTFSSIGGQPNCNICRVCAGYFRFKKFCSSTHNAECECIEGFHCLGPQCTRCEKDCRPGQELTKQGCK
Q: What does the source list for B3?
A: binding [1]: binds; binding [3]: binds; binding [4]: binds

Q: Which binding [1] does the source give for VQNSCDNCQPGTFCRKYNPVCK (Fc fusion, UniProt P20334 24-45) [mE2 (mouse CD137 CRDI, human IgG-Fc fusion protein)] here?
A: no binding (tested: 10 µg/ml)

Q: And the binding [4]?
A: no binding
